The structures appear in SMILES notation. Where “and” joins values, the source holds several entries; their conditions need not be identical. Equal entries are not always repeated. Among all 340,000 compounds or so, about 6,900 (2%) were called active. Rule as the data show it: active = inhibition above about 30%; inactive = below that, where a call was filed. Only a part is listed here, and it is no random draw. The source gives no active or inactive call for entries shown without one.

The inhibition is the relative decrease from the control value, in per cent.

Chain of UniProt P14416 (P14416 whole entry, looked up): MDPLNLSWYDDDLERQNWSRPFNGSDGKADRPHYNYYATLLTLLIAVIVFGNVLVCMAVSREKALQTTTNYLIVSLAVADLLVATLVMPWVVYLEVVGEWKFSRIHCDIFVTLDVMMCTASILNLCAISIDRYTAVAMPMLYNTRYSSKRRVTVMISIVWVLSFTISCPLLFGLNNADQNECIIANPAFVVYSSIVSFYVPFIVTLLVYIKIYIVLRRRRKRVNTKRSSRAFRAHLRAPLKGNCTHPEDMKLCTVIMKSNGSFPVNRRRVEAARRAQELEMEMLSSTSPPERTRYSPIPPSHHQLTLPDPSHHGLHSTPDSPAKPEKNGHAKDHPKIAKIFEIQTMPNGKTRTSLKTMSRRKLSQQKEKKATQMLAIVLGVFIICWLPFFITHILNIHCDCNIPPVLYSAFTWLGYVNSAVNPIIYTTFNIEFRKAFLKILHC

The test addresses D(2) dopamine receptor (Homo sapiens) (UniProt P14416). In words: HTS Assay for Allosteric Antagonists of the Human D2 Dopamine Receptor: Primary Screen for Antagonists. Also: 0% is about no effect. The note with it: HEK293 TREx D2 cells, calcium flux, dopamine EC80; at 10 µM; stronger effect = higher value. A digest of the protocol:
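HEK293 T-REx D2 cells, tet-induced, calcium dye no-wash. Cpd pintool add, 180 s kinetic, then EC80 DA, 180 s kinetic. Ca flux read.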
(In general: Calcium flux is commonly read through the fluorescence of an indicator in the cells.)
`CC(C)c1ccc(CNCCSc2nnnn2C)cc1`: the inhibition is -5.59%. Next, `CCN(CC)CCNC(=O)c1ccc(NC(=O)c2c(C)nn(-c3ccc(F)cc3)c2Cl)cc1`: active: 40.9%; `CCc1ccccc1NC(=O)c1cc(S(=O)(=O)NCCc2ccc(OC)c(OC)c2)ccc1F`: -5.79%. As for `CC(=O)Nc1c(C)nn(-c2ccccc2)c1N1CCC(C(=O)Nc2cc(Cl)ccc2C)CC1`, the inhibition was -2.07%. For the molecule `CCOc1ccc(NC(=O)C(C)Sc2nnc3cc(C)c4ccccc4n23)cc1` (configuration not stated), the inhibition is -3.41%.

With `Cc1nnc(NC(=O)c2nc(S(=O)(=O)Cc3ccccc3)ncc2Cl)s1`, the inhibition was determined as 10.9%.

Turning to `Cc1nc2c(-c3ccccc3)c(C)nn2c(C)c1CCC(=O)NCc1cccc(Cl)c1`, the inhibition was found to be 17.9%.

With `CCCCC(=O)Nc1cccc(OCc2cc(=O)n3ccccc3n2)c1`, the inhibition worked out at 1.75%.

In the case of `COc1ccccc1CNC(=O)Cn1ncc2c(=O)oc3ccc(C)cc3c21`, the inhibition amounted to 1.43%. Next, `Cc1ccc(Nc2c(-c3ccc(C)cc3)nc3cnccn23)cc1`: 4.48%; `COc1ccccc1N1CCN(C2CCCN(Cc3c(F)cccc3F)C2)CC1` (configuration not stated): active: 53.1%; `Cc1ccccc1CS(=O)(=O)Cc1ccc(C(=O)NCCc2ccccc2)o1`: -3%. Next, `COc1cc(C(=O)Nc2cc(C)ccc2OCc2cc(=O)n3cc(C)sc3n2)cc(OC)c1OC`: 8.4%; `NCCc1nnc(SCc2ccc(Cl)cc2)o1`: -9.28%; `COc1ccccc1C(=O)Nc1nc2ccc(S(=O)(=O)N3CCCC3)cc2s1`: -15.5%. With `COc1ccc(C(=O)CN2C(=O)N(c3cc(C)cc(C)c3)S(=O)(=O)c3ccccc32)cc1` the figure was 4.52%; with `Clc1ccc(CCNc2ncnc3c2c(-c2ccccc2)cn3-c2ccccc2)cc1`, 0.6%. On to `CCOC(=O)CSc1nc2cc3c(cc2c(=O)n1CCCC(=O)NCc1ccc2c(c1)OCO2)OCO3`, for which the inhibition stood at 7.9%. `CCCOc1ccccc1C(=O)N1CCC(c2nc3ccccc3s2)CC1`: the inhibition was -2.09%. Next, `COC(=O)CN1C(=O)CSc2ccc(S(=O)(=O)Nc3ccc(Cl)cc3C)cc21`: 2.02%. With `CCOC(=O)CN1C(=O)C(Sc2n[nH]c(-c3ccc(C)cc3)n2)CCc2ccccc21` (configuration not stated) the figure was active: 60.8%; with `CC(C)Cc1nn2c(=O)cc(COC(=O)c3cccc(NC(=O)CCc4ccccc4)c3)nc2s1`, 4.61%; with `C=Cc1ccc(CSc2nc(-c3ccc(OC)cc3)nc3c2Cc2c(CO)cnc(C)c2O3)cc1`, -14.4%. On to `Cc1ccc2ccc(C(Nc3ccccn3)c3ccccc3)c(O)c2n1` (configuration not stated), for which the inhibition was 5.93%. Turning to `COc1cccc(-c2nc3c(c(SCc4ccccc4)n2)Cc2c(CO)cnc(C)c2O3)c1`, the inhibition was -0.247%. Next, `NC(=O)c1cc(S(=O)(=O)NCc2ccccc2)cs1`: 10.9%; `CCCn1c(=O)n(-c2ccccc2)c(=O)c2sc3ccccc3c21`: 5.55%; `CN(C(=O)CCNC(=O)Cn1cnc2ccccc2c1=O)c1ccccc1F`: 4.83%. On to `C=CCc1c(C)nc2nc(SCC(=O)Nc3ccccc3CC)nn2c1C`, for which the inhibition is 1.27%.

For the molecule `CCOc1ccc(CCNC(=O)CN2CCN(Cc3ccc(F)cc3Cl)C2=O)cc1OCC`, the inhibition was -2.51%. Next, `COc1ccc(NC(=O)CSc2nnc(-c3ccc(C)cc3)o2)cc1`: 11.5%. Regarding `Cc1ccc(Cl)cc1N1CCN(C(=O)c2cn(C3CCCCC3)c(=O)c3c2c2ccccc2n3C)CC1`, the inhibition stood at 0.766%.

`CN(C)c1ccc(C(CNC(=O)COc2ccc(Cl)cc2)N2CCOCC2)cc1` (configuration not stated): the inhibition is 5.15%. As for `COc1cccc(N2CCN(C(=O)C3CCC(CNS(=O)(=O)c4ccc(Br)s4)CC3)CC2)c1` (configuration not stated), the inhibition was -2.8%. With `Cc1ccc(NC(=O)CN2CCCN(Cc3cc(C)ccc3C)S2(=O)=O)c(Cl)c1` the figure was -4.24%; with `COCCCNC(=O)Cn1c(=O)n(-c2ccc(C)cc2)c(=O)c2c1c1cc(C)ccc1n2C`, 4.8%. `CCS(=O)(=O)N1CC(=O)N(c2ccccc2C)C(C)(C(=O)NC2CCCCC2)C1` (configuration not stated): the inhibition was 1.94%. `COC(=O)C1CCN(S(=O)(=O)c2cc3c4c(c2)C(C)C(=O)N4CCC3)CC1` (configuration not stated): the inhibition is -19.5%.

For the molecule `CC(=O)N1c2ccccc2CC1C(=O)N1CCN(c2ccc(F)cc2)CC1` (configuration not stated), the inhibition was -5.81%. In the case of `O=C(Nc1ccc(F)cc1F)c1ccc(CN2CC(=O)N3CCCCC3C2=O)cc1` (configuration not stated), the inhibition is 8.73%. For `O=C(CSc1nc2ccccc2c2nc(-c3ccccc3)nn12)Nc1ccc(Br)cc1`, the inhibition is -11.3%. With `CC(C)(C)c1cc(C(C)(C)C)c2oc(=O)c(-c3nc4ccccc4[nH]3)cc2c1` the figure was 8.07%; with `Cc1ccc(Cn2c(SCC(=O)NCc3ccc(Cl)cc3)nc3ccsc3c2=O)cc1`, 8.24%.

`CCc1cc(C(=O)Nc2c(C)nn(Cc3ccc(C)cc3)c2C)no1`: the inhibition stood at 8.4%. `CCOC(=O)c1noc2ncnc(N3CCN(c4ccccc4OC)CC3)c12`: the inhibition worked out at 3.91%. Take `CCOC(=O)c1c(C)c(-c2ccccc2)n(CC(=O)Nc2cc(OC)cc(OC)c2)c1C`: the inhibition is -14.4%. Next, `CC(C)(C)NS(=O)(=O)c1ccc2nc(NC(=O)c3cccnc3)sc2c1`: 0.178%; `COC(=O)CNC(=O)Nc1cc(C(=O)NCc2ccc(C)cc2)ccc1N1CCCC1`: -2.02%; `CC(Oc1ccccc1)C(=O)Nc1nc2ccc(S(N)(=O)=O)cc2s1` (configuration not stated): 24.4%. For the molecule `OC(CNCCc1ccc(C(F)(F)F)cc1)COC(c1ccccc1)c1ccccc1` (configuration not stated), the inhibition is active: 31%. On to `Cc1cc2c(cc1S(=O)(=O)NCc1ccc(N(C)C)cc1)OCC(=O)N2`, for which the inhibition was -28.5%. As for `COc1ccc(N(CC(=O)NC(C)c2ccccc2)S(=O)(=O)c2c(C)noc2C)cc1` (configuration not stated), the inhibition was 11.7%. `CCCN(C(=O)c1cc2c(s1)-c1ccccc1SC2)c1ccccc1F`: the inhibition is -2.41%. For `CC1(c2ccc(Cl)cc2)CC(C)(C)N(C(=O)c2ccccc2)c2ccccc21` (configuration not stated), the inhibition was 5.34%. With `Cc1ccc(OCc2nc3ccccc3n2CC(C)C)cc1` the figure was 7.02%; with `COc1ccc(CCNC(=O)CCn2c(=O)c3cccn3c3ccc(F)cc32)c(OC)c1OC`, 5.57%.

For `Cc1nn2c(NCc3ccccn3)c3c(nc2c1-c1ccccc1)CCC3`, the inhibition is active: 40.2%. In the case of `CCOc1ccccc1CNC(=O)Nc1cn(CC(C)C)c(=O)c2ccccc12`, the inhibition is -8.28%. Turning to `CCc1ccc(NC(=O)Cn2cnc3sc(C)c(S(=O)(=O)N4CCC(C)CC4)c3c2=O)cc1`, the inhibition amounted to 9.8%.

Consider `CCCC(=O)NCC(c1ccc2c(c1)OCO2)N1CCN(c2ccc(F)cc2)CC1` (configuration not stated), for which the inhibition is 11.6%. With `COc1ccc(-n2ncc(C(=O)NCc3ccccc3)c2C2CCN(C(=O)OC(C)(C)C)CC2)cc1` the figure was -2.34%; with `COc1ccc(-c2nc3c(C#N)c[nH]n3c2NC2CCCCC2)c(OC)c1`, 20.1%.

Turning to `Cc1ccc2[nH]c3nc(N/N=C/c4cccc(O)c4)nnc3c2c1`, the inhibition is active: 36.7%.

Turning to `CCOC(=O)c1c(C)[nH]c(N=Nc2ccccc2)c1C`, the inhibition is active: 67.1%. Next, `CCOC(=O)C1CCN(C(=O)C2COc3ccccc3C2)CC1` (configuration not stated): 1.14%.

With `Cc1ccc(OCCCn2c(C3CC(=O)N(c4cccc(Cl)c4)C3)nc3ccccc32)c(C)c1` (configuration not stated), the inhibition was determined as 0.789%. Next, `COc1cc(CC(=O)N/N=C/c2ccccc2)c([N+](=O)[O-])cc1OC`: active: 77%. Next, `CN1/C(=C\C=C2/C(=O)Oc3ccccc3C2=O)C(C)(C)c2ccccc21`: active: 68.1%; `O=C(CSc1nccn1Cc1ccc(Cl)cc1)NC1CCCC1`: -0.458%. For the molecule `Cc1ccc(CN2CCSc3ccc(C(=O)N4CCN(c5cccc(C)c5C)CC4)cc32)cc1`, the inhibition came out at 3.42%.

With `O=C(c1cc2ccccc2oc1=O)N(Cc1cccc(Cl)c1)C1CCS(=O)(=O)C1` (configuration not stated), the inhibition amounted to 13.5%.

As to `CC(=O)c1ccc(N2CCN(C(=O)C3CCN(S(=O)(=O)c4cccc5nonc45)CC3)CC2)cc1`, the inhibition came to 4.81%.

With `O=c1c2c3c(sc2nnn1Cc1ccc(Br)cc1)CCCC3`, the inhibition worked out at 4.88%. With `O=S(=O)(NCCc1csc(-c2ccc(F)cc2)n1)c1ccc(Cl)cc1`, the inhibition was found to be 23.8%. With `CCOC(=O)c1ccc(NC(=O)CCc2c(C)nc3c(c(C)nn3C)c2C)cc1` the figure was -2.73%; with `CCOc1ccccc1NC(=O)Cn1c(=O)ccc2cc(S(=O)(=O)N3CCC(C)CC3)ccc21`, -2.67%.

For the molecule `CCN(C(=O)Cc1c(C(=O)O)[nH]c2ccccc12)c1ccc(OC)cc1`, the inhibition was 2.34% and active: 53.3%. With `Cc1ccc(Cl)cc1NC(=O)c1ccc(-c2nc(CSc3ccccc3)c(C)o2)cc1` the figure was 10.2%; with `CCC(=O)N1c2ccccc2CC1C(=O)N1CCN(c2ccccc2)CC1` (configuration not stated), -2.79%. Next, `CCc1ccc(CN(C(=O)c2nc(SC)ncc2Cl)C2CCS(=O)(=O)C2)cc1` (configuration not stated): -7.27%; `CC(C)Cc1nn2c(=O)cc(COC(=O)c3ccc(NC(=O)c4cccs4)cc3)nc2s1`: 0.716%; `CCOC(=O)c1ccc(NC(=O)CC2C(=O)N(c3ccccc3)C(=O)N2Cc2cccs2)cc1` (configuration not stated): -1.06%. In the case of `Cc1ccc2c(CNCCc3ccc(Cl)cc3)c(C(=O)O)n(Cc3ccc(F)cc3)c2c1`, the inhibition was -0.572%.

Consider `COc1ccc(N2CCN(CC(O)COc3ccc(C(C)(C)C)cc3)CC2)cc1` (configuration not stated), for which the inhibition was found to be 9.36%. For `Cc1ccc(S(=O)(=O)c2[nH]c(-c3ccccc3)nc2SCC(=O)O)cc1`, the inhibition worked out at 15.1%.

Turning to `O=C(CCNC(=O)N1CC(=O)Nc2ccccc21)NCc1ccc(F)cc1`, the inhibition was active: 51.6%.

Turning to `O=c1c2sc3ccccc3c2n(Cc2ccccc2)c(=O)n1Cc1ccccc1`, the inhibition came out at 0.11%. Regarding `CCOc1ccc(CNC(=O)c2ccc3nc(Cc4ccc(OC)cc4)oc3c2)cc1OC`, the inhibition worked out at 3.01%. Regarding `CCOC(=O)C1CCCN(S(=O)(=O)c2ccc3[nH]c(=O)ccc3c2)C1` (configuration not stated), the inhibition was -24%. With `Cc1ccc(S(=O)(=O)NCc2nc3nc(C)cc(C)n3n2)c(C)c1` the figure was 5.74%; with `CCCC(=O)Nc1ccc(C(=O)COC(=O)c2cc(C)oc2C)cc1`, active: 34.8%; with `CCOC(=O)c1ccccc1NC(=O)CSc1nc2ncccc2[nH]1`, -1.31%. Consider `CCN1c2ccccc2-c2nc(SCC(=O)Nc3ccc(C)c(Cl)c3)ncc2S1(=O)=O`, for which the inhibition turned out to be 4.09%. Take `COc1ccc(N2CCN(C(=O)CCS(=O)(=O)c3cc4c(cc3Cl)NC(=O)CO4)CC2)cc1`: the inhibition stood at 8.01%. In the case of `CC(=O)c1cc(C(=O)Nc2cccc(C)c2)c2ccccn12`, the inhibition was -3.62%. Take `COc1ccc(-c2nnn3c2nc(N2CCCC(C)C2)c2ccccc23)cc1` (configuration not stated): the inhibition was -7.63%. Next, `Cc1ccc(C)c(N(C)C(=O)C2CCN(S(=O)(=O)c3cccc4nsnc34)CC2)c1`: -0.934%.

(Values after PubChem BioAssay AID485344 (National Center for Advancing Translational Sciences (NCATS), 2010).)
